Assay results taken from PubChem BioAssay AID1466 (National Center for Advancing Translational Sciences (NCATS), 2008).
Screen size: about 200,000 compounds; about 10 (0.005%) were called active. Inconclusive results, whose numbers are uncertain, are shown with a selection of clear calls. The call rests on the fitted dose curve; in most records, active means well fitted inhibition curve with a large enough effect; inconclusive means small, poorly fitted or top-dose-only effect, or effect the other way, or another doubt; inactive means no such curve, though single readings can be large or run the other way. No potency is given beside an inconclusive call; the fits are too rough.

Biological target: Lysosomal alpha-glucosidase (Homo sapiens) (UniProt P10253)
Experiment: qHTS Assay for Inhibitors of Human alpha-Glucosidase as a Potential Chaperone Treatment of Pompe Disease;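 on activity change, negative = inhibition: plate controls were uninhibited enzyme wells for no effect and no-enzyme background for full effect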
Conditions: purified human GAA, 4-MU-alpha-glucoside fluorescence; activity change, negative = inhibition: at 76.9 µM (top of the series) unless noted
Outline: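 Human enzyme at 4 nM with 400 uM 4-methylumbelliferyl-alpha-D-pyranoside, citrate/phosphate buffer pH 5.0, 0.005% Tween-20, 20 min at room temperature. Compounds up to 77 uM. 4-MU fluorescence (Ex 365/Em 440) read after NaOH/glycine stop; AC50 from Hill fit.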
Potency means the concentration at half of the fitted maximal effect; tags describe the fitted curve by direction and shape.

SMILES	Potency	activity change, negative = inhibition
C/C(=N\NC(=O)c1ccccc1[N+](=O)[O-])c1ccc(Br)s1	inconclusive [inhibitor, partial curve]	–
Cc1cccc2cc(CN(Cc3ccc(F)cc3)C(=O)N3CCOCC3)c(=O)[nH]c12	inconclusive [inhibitor, partial curve, poor fit]	–
CN(c1ccccc1)S(=O)(=O)c1cccc(NC(=O)c2cc(=O)c3ccccc3o2)c1	inconclusive [inhibitor, partial curve, poor fit]	–
O=c1sc2ccccc2n1Cc1ccccc1	–	inconclusive: 18.5% [activator]
COCCCNC(=O)c1c[nH]c2ccc(S(=O)(=O)N3CCC(C)CC3)cc2c1=O	inconclusive [inhibitor, partial curve]	–
CCn1c(CSc2nc3ccccc3s2)nnc1SCC(=O)c1ccc(Cl)cc1	inconclusive [inhibitor, single point]	–
N#Cc1nc(-c2cccs2)oc1NCc1ccc(Cl)cc1	–	inconclusive: 16.8% [activator]
CC(=O)Nc1ccc(OC(=O)c2ccc(Br)c([N+](=O)[O-])c2)cc1	inconclusive [inhibitor, single point]	–
CCS(=O)(=O)N1CCC(C(=O)NC2CCCCC2)CC1	inconclusive [inhibitor, single point]	–
CCc1ccc(OCc2n[nH]c(=S)n2C(C)CCCC(C)C)cc1 (stereo not drawn)	–	inactive: -12.7%
O=S(=O)(Nc1cccc(S(=O)(=O)N2CCOCC2)c1)c1ccc2c(c1)OCCO2	inconclusive [inhibitor, partial curve]	–
CCOC(=O)N1CCN(C(=O)Cn2ncn3nc(-c4cccs4)cc3c2=O)CC1	inconclusive [inhibitor, partial curve, poor fit]	–
CCOC(=O)c1sc(=S)n(-c2ccc(C)cc2)c1SC	inconclusive [inhibitor, full curve, poor fit]	–
COc1ccc(N(C(=O)C2CCCCC2)S(=O)(=O)c2cccc3cccnc23)cc1	inconclusive [inhibitor, single point]	–
Cc1ccc(S(=O)(=O)N2CCN(C(=O)c3cc4c(C)nn(-c5ccccc5C)c4s3)CC2)cc1	inconclusive [inhibitor, full curve]	–
COC(=O)C1=C(C)NC(C)=C(C(=O)OC)C1c1ccc(OC(=O)c2ccco2)cc1	inconclusive [activator, partial curve]	–
CCOc1ccc(C2CC(c3cccc(OC)c3OC)n3nnnc3N2)cc1Cl (stereo not drawn)	inconclusive [inhibitor, partial curve, poor fit]	–
CCOC(=O)c1c(-c2ccc(F)cc2)csc1NC(=O)c1c(-c2ccccc2)noc1C	inconclusive [inhibitor, partial curve, poor fit]	–
CC(C(=O)NCc1cccs1)N1C(=O)c2ccccc2C1=O (stereo not drawn)	inconclusive [inhibitor, full curve, poor fit]	–
C#CCn1c(=NC(=O)c2ccc(S(=O)(=O)N3CCc4ccccc4C3)cc2)sc2cc(S(N)(=O)=O)ccc21	inconclusive [activator, single point]	–
O=C(N/N=C/c1c(O)n(-c2ccc(Cl)cn2)c(=O)c2ccccc12)c1ccncc1	inconclusive [inhibitor, partial curve]	–

SMILES	Potency	activity change, negative = inhibition
Cc1ccc(OC(=O)c2cc(=O)c3ccccc3o2)cc1	inconclusive [inhibitor, single point]	–
Cc1ccc(S(=O)(=O)N2CCN(C(=O)CSc3ncc(C(F)(F)F)cc3Cl)CC2)cc1	inconclusive [inhibitor, partial curve]	–
CC(=O)Nc1nc(C2CC2)cc(-c2ccccc2)c1C#N	inconclusive [activator, full curve]	–
Cc1ccc(C2=N/C(=C\N3CCCCC3)C(=O)O2)cc1	inconclusive [inhibitor, partial curve, poor fit]	–
O=C(CSCc1ccccc1Cl)NN=C1CCCCCC1	–	inactive: -9.62%
CCOc1ncccc1C(=O)OCC(=O)N1CCN(S(=O)(=O)c2ccc(Cl)cc2)CC1	inconclusive [inhibitor, single point]	–
COc1cc2c(cc1NC(=O)CSCC(=O)O)oc1ccccc12	inconclusive [inhibitor, single point]	–
CN(c1cccc(Cl)c1)S(=O)(=O)c1cccc(C(=O)Nc2nc3ccccc3[nH]2)c1	inconclusive [inhibitor, partial curve]	–
COC(=O)c1ccc(CSc2cc(C)c3ccccc3n2)o1	inconclusive [inhibitor, full curve, poor fit]	–
Cc1cc(NC2CCCCC2)n2c(n1)nc1ccccc12	inconclusive [activator, partial curve]	–
CC1CCCN(C(=S)NCc2ccccc2)C1 (stereo not drawn)	inconclusive [inhibitor, full curve, poor fit]	–
COc1ccc(CN(C(=O)/C=C/c2ccco2)C2CCS(=O)(=O)C2)cc1 (stereo not drawn)	inconclusive [inhibitor, single point]	–
CCOC(=O)c1sc2nc(CSc3ccccc3)nc(N3CCC(C(N)=O)CC3)c2c1C	–	inconclusive: -17.8% [inhibitor]
O=C(c1ccc(Cn2cc(Cl)cn2)cc1)N1CCN(c2ccccc2)CC1	–	inactive: -1.57%
Cc1cc(C)cc(OCC(=O)NCCc2nc3ccccc3[nH]2)c1	–	inconclusive: 13.3% [activator]
CCOC(=O)C1CCN(C(=O)C(C)N(c2ccc(Oc3ccccc3)cc2)S(C)(=O)=O)CC1 (stereo not drawn)	inconclusive [inhibitor, single point]	–
CCCn1c(N)[n+](CC(=O)c2ccco2)c2ccccc21	–	inactive: 0.668%
Cc1cc2c(c(SCC(N)=O)n1)C(=O)OC2	inconclusive [inhibitor, partial curve]	–
Cc1ccccc1N(CC(=O)NC1CCCC1)C(=O)C1(C)CC(=O)N=C2C=CC=CN21 (stereo not drawn)	inconclusive [activator, single point]	–
CN(Cc1ccccc1)C(=O)c1ccc2c(c1)OCCO2	inconclusive [inhibitor, single point]	–
COc1ccc(-c2cn3c4c(sc3n2)CCCC4)cc1	inconclusive [inhibitor, single point]	–

SMILES	Potency	activity change, negative = inhibition
CCn1c(CNc2ccc(F)cc2)nnc1SCC#N	inconclusive [inhibitor, full curve, poor fit]	–
C=CCn1c(=N)c(C(=O)NCCCOC)cc2c(=O)n3cccc(C)c3nc21	inconclusive [activator, single point]	–
Nc1nc2ccc(OC(F)(F)F)cc2s1	inconclusive [inhibitor, single point]	–
Cc1cc(C)nc(N2CCCC(C(=O)NCc3cccc(C(F)(F)F)c3)C2)n1 (stereo not drawn)	–	inconclusive: -17.6% [inhibitor]
COc1ccc(C(=O)NNC(=O)CSc2nnnn2C)cc1	–	inconclusive: 16.3% [activator]
CC(C(=O)Nc1ccc(S(=O)(=O)N2CCCC2)cc1)N1CCN(C(=O)c2ccco2)CC1 (stereo not drawn)	inconclusive [inhibitor, partial curve, poor fit]	–
Cc1ccc(O)c(C(=O)c2cnc3onc(-c4ccc(F)cc4)c3c2)c1	inconclusive [inhibitor, partial curve]	–
COc1cccc(C(=O)/C=C/Nc2cc(C)ccc2O)c1	–	inactive: -4.76%
CCn1c(SCC(=O)Nc2nc3ccc(C)cc3s2)nc2c(c1=O)SC(C)C2 (stereo not drawn)	inconclusive [inhibitor, full curve, poor fit]	–
NC(=O)c1ccc(N2CCN(S(=O)(=O)c3ccccc3)CC2)c([N+](=O)[O-])c1	inconclusive [inhibitor, partial curve]	–
CCOC(=O)C1(Cc2ccccc2C(F)(F)F)CCN(C(C)CCn2cccn2)CC1 (stereo not drawn)	inconclusive [inhibitor, single point]	–
Cn1nc(C(=O)OCC(=O)N2CCc3ccccc32)c2ccccc2c1=O	inconclusive [inhibitor, single point]	–
CC1(C)CCCN(C(=O)c2coc(=O)c(Br)c2)C1	inconclusive [activator, partial curve]	–
CC(C)(C)n1nnnc1C(c1ccc(C(F)(F)F)cc1)N(Cc1ccc(F)cc1)Cc1ccco1 (stereo not drawn)	inconclusive [inhibitor, single point]	–
Fc1ccc(Nc2nnns2)cc1	–	inconclusive: -17.2% [inhibitor]
COc1ccc(-n2c(SCc3ccc([N+](=O)[O-])cc3)nnc2-c2ccccc2)cc1	inconclusive [inhibitor, single point]	–
S=c1[nH]nc(CNc2ccc(Cl)cc2)n1Cc1ccccc1	inconclusive [inhibitor, single point]	–
Cc1oc(C(C)(C)C)cc1C(=O)N1CCN(C(c2ccccc2)c2ccccc2)CC1	–	inconclusive: -17.2% [inhibitor]
Cc1cccc(C(CC(=O)NCc2ccco2)c2ccccc2)c1O (stereo not drawn)	–	inconclusive: 3.86% [activator]
COC(=O)C1=CN(C2CC2)C=C(C(=O)OC)C1c1ccc(C(F)(F)F)cc1	inconclusive [activator, partial curve]	–
COc1cc(C2NC(=S)NC(c3ccccc3)=C2C(C)=O)cc(Br)c1OCC(N)=O (stereo not drawn)	inconclusive [activator, partial curve]	–
